# Whole data set: some 110,000 compounds, median “z-score” near -0.1, cut for the highest 2% near 2. This is one part of the list.
# Biological target: Metabotropic glutamate receptor 8 (Rattus norvegicus) (UniProt P70579)
# Assay: rat mGluR8 modulators via GIRK flux, primary screen, cell-based, thallium flux, HTS (AID 488969)
# Details: HEK293 rat mGluR8, GIRK (G protein-gated inwardly rectifying potassium channel) thallium flux, FluoZin2; at 10 µM; stronger effect = higher value; submaximal glutamate (EC20) added with thallium
# UniProt P70579, sequence (P70579 whole entry, looked up): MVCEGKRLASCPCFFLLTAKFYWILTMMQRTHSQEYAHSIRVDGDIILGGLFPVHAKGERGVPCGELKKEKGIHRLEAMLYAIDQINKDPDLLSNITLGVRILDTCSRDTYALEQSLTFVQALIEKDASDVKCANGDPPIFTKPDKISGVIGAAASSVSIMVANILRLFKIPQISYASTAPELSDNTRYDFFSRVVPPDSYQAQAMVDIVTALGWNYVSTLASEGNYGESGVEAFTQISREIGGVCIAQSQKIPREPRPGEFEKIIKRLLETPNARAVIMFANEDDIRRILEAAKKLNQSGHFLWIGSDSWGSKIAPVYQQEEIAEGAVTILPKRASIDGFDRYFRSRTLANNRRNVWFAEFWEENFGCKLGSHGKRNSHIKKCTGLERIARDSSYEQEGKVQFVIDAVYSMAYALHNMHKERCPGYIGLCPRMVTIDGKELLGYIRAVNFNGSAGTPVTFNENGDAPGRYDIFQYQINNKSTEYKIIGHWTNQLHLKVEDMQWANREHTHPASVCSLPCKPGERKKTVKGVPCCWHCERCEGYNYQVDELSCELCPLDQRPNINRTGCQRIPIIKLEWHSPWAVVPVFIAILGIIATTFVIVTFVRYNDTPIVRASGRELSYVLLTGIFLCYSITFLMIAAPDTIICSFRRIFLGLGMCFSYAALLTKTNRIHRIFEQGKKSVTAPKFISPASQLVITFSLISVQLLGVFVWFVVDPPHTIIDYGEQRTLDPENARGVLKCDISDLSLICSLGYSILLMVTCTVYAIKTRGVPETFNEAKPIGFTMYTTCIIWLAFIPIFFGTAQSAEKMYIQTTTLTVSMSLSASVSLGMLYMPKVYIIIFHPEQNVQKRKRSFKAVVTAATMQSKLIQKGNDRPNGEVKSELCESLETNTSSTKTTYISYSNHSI
row,SMILES,z-score
1,CN(C)S(=O)(=O)c1cccc(NC(=O)c2cc(-c3cccs3)nn2-c2cccc(Cl)c2)c1,-0.214
2,O=C(c1ccc(Cn2cc(Cl)cn2)cc1)N1CCN(c2ccccc2)CC1,-0.125
3,Cc1c(Cl)c([N+](=O)[O-])nn1CCCC(=O)Nc1ccc(Cl)cc1Cl,-0.161
4,O=C(NNc1c(Cl)cc(Cl)cc1Cl)c1cccc([N+](=O)[O-])c1,-0.297
5,CCOC(=O)Nc1nc(C)c(C(=O)N(C)C)s1,-0.0609
6,COC(=O)COc1ccc(S(=O)(=O)Nc2ccc(NC(C)=O)cc2)cc1C,-0.154
7,CCN1CCN(C(c2cccs2)C(C)NC(=O)NC2CCCCC2)CC1 (stereo not drawn),0.127
8,C=CCn1c(Cc2ccc(OCC)cc2)nnc1SCC(N)=O,0.0956
9,Cc1ccc(C(O)CN2C3=NCCCN3c3ccccc32)cc1 (stereo not drawn),1.16
10,CCCCNC(=O)N1CCOCCOCCN(C(=O)NCCCC)CCOCCOCC1,0.0635
11,CC(C)Nc1nc2n(c(=O)n1)CCN2C(C)C,-0.112
12,O=C(OCCN1CCCC1=O)c1cc(F)c(F)c(F)c1F,-0.0114
13,COc1ccc(/C(C#N)=C/c2c(-c3ccc(Cl)cc3)nc3c(C)cccn23)cc1,0.106
14,CN(c1nc2ccccc2n2c(-c3ccco3)nnc12)S(=O)(=O)c1ccccc1,-0.388
15,COc1ccc(S(=O)(=O)Nc2ccc(C)cc2)cc1N(C)S(=O)(=O)c1ccc(Cl)cc1,-0.167
16,CCOC(=O)C(CC)Sc1ncnc2nc[nH]c12 (stereo not drawn),-0.244
17,Cn1c(Cn2nnc3ccccc32)nnc1SCC(=O)N1c2ccccc2Sc2ccccc21,-0.24
18,CN(CC(=O)Nn1cnnc1)S(=O)(=O)c1ccccc1,-0.262
19,CCOC(=O)C1CCCN(C(=O)c2cc(Nc3ccc(OC)cc3)nc3ccccc23)C1 (stereo not drawn),0.495
20,C=CCCC(=O)Nc1nc(C)c(-c2csc(Nc3ccccc3OC)n2)s1,-0.281
21,O=S(=O)(c1cccc2cccnc12)N1CCOCC1,-0.368
22,O=C(Nc1ccc2c(c1)OCO2)c1cc2nc(C3CC3)cc(C(F)(F)F)n2n1,-0.167
23,O=C1CC(C(=O)Nc2ncccn2)C(c2ccccc2)O1 (stereo not drawn),0.0585

row,SMILES,z-score
1,O=C(CNC1C(=O)Nc2ccccc21)Sc1ccccc1 (stereo not drawn),1.16
2,Cc1ccccc1CN(c1ccc(C(=O)Nc2ccccc2C(=O)N2CCCC2)cc1)S(C)(=O)=O,-0.451
3,CC(C)C(NC(=O)c1ccccc1)C(=O)NC1=NCCS1 (stereo not drawn),-1.03
4,CCS(=O)(=O)CCSc1nc2ccccc2s1,1.26
5,CCCNC(=S)Nc1cccc(C(F)(F)F)c1,-0.0262
6,CCCn1c(N)[n+](CC(=O)c2ccco2)c2ccccc21,-0.369
7,O=C(CSc1nnc(Cc2cc(=O)[nH]c(=O)[nH]2)n1-c1ccc(F)cc1)N1CCCCC1,0.143
8,CN(Cc1ccccc1)S(=O)(=O)c1ccc2c(c1)NC(=O)CC(=O)N2,0.0876
9,CCC(=O)Nc1cccc(NC(=O)c2ccccc2Br)c1,0.164
10,Cc1nc2cc(NC(=O)N3CC4(C)CC3CC(C)(C)C4)ccc2n1C (stereo not drawn),-0.00901
11,COc1ccc(C(=O)CN2CCN(S(=O)(=O)c3cccc([N+](=O)[O-])c3)CC2)cc1OC,0.997
12,Clc1ccc(-c2nc3ncccn3c2Nc2ccc3c(c2)OCO3)cc1,-0.0933
13,COc1ccc(/C=C/C(=O)Nc2ccccc2C(F)(F)F)cc1OC,-0.0897
14,CCOc1cc(NC(=S)Nc2cccc(OC)c2)c(OCC)cc1NC(=O)C1CC1,-0.0916
15,CCc1ccccc1NC(=O)c1ccc(CN2CCC(Cc3ccccc3)CC2)cc1,0.341
16,O=C(NCCO)c1scc2c1OCCO2,0.107
17,CCNc1ccccc(-c2ccc3ccccc3n2)c1=O,-0.172
18,CCn1c(=O)n(CC)c2cc(S(=O)(=O)Nc3c(C)cccc3C)ccc21,1.36
19,COc1ccc(CN=C2NC(=O)CC(C(=O)Nc3ccc(Cl)cc3)S2)cc1 (stereo not drawn),-0.983
20,CCOC(=O)c1[nH]c2ccccc2c1N=C(C)N(CC)CC,-0.0918
21,Cc1cc(N(CC(=O)NC(C)C)S(C)(=O)=O)ccc1Br,0.0847
22,COc1ccc(C(=O)Nc2nc3ccccc3[nH]2)cc1OC,-0.287
23,O=C1N(CN2C(=O)C3(OCCO3)c3ccccc32)c2ccccc2C12OCCO2,0.0746

row,SMILES,z-score
1,Cc1ccccc1N(CC(=O)NC1CCCC1)C(=O)C1(C)CC(=O)N=C2C=CC=CN21 (stereo not drawn),-0.259
2,CCOc1ccccc1NC(=O)CSc1nc(N)c(C#N)cc1C#N,0.579
3,COc1ccc(C(=O)Cn2nnc(-c3ccccc3NC(=O)c3ccco3)n2)cc1,-0.311
4,CCOc1ccccc1NC(=S)N(Cc1cc2ccc(C)cc2[nH]c1=O)CC1CCCN1CC (stereo not drawn),-0.724
5,CCCC(=O)Nc1nc(C)c(-c2csc(Nc3ccccc3C)n2)s1,-0.0857
6,Cc1cccc(-n2c(N)cc(=O)nc2SCC(=O)Nc2nnc(C)s2)c1,0.523
7,Cc1nc(SC(C(=O)c2ccccc2)c2ccccc2)n[nH]1 (stereo not drawn),-0.522
8,CCOc1cc2[nH]c(=O)n(CCCCC(=O)N3CCCCCC3)c(=O)c2cc1OCC,2.21
9,CC1CCCN(c2ccc(/C=C(\C#N)c3nn(-c4ccccc4)c(N)c3C#N)cc2[N+](=O)[O-])C1 (stereo not drawn),0.046
10,COc1ccc(NC(=O)CCC(=O)c2cccs2)cc1S(=O)(=O)Nc1ccccc1Cl,-0.34
11,O=C(NCc1ccco1)c1cc2c(s1)CCCCC2,0.555
12,Cc1cc(C)cc(N(C(=O)C(F)(F)F)C(C(=O)NC2CCCCC2)c2cccs2)c1 (stereo not drawn),-0.109
13,Cc1ccc(NC(=O)C2C(=O)N(CCO)C3(C)CC2c2ccccc2O3)cc1 (stereo not drawn),-0.0277
14,COc1ccc(N2CCN(C(=O)c3ccc(-n4nc(C)cc4C)cc3)CC2)cc1,-0.108
15,O=C(Nc1nnc(-c2ccc(Cl)s2)o1)C1CCCCC1,1.92
16,COC(=O)C1=C(C)NC(C)=C(C(=O)OC)C1c1ccc(OC(=O)c2ccco2)cc1,-0.519
17,O=C(CCC(=O)NNC(=O)Nc1ccc(Cl)cc1)NCc1ccccc1,-0.164
18,CCOC(=O)c1c(-c2ccc(F)cc2)csc1NC(=O)c1c(-c2ccccc2)noc1C,-0.0698
19,CC(C(=O)NCc1cccs1)N1C(=O)c2ccccc2C1=O (stereo not drawn),0.434
20,COc1ccccc1N1CCN(c2ncnc3c2oc2ccccc23)CC1,-0.369
21,CCCOc1ccc(C2/C(=C(/O)c3ccccc3)C(=O)C(=O)N2CCCN(C)C)cc1OC (stereo not drawn),-0.0681
22,CC(=O)NNc1nc(-c2ccccc2)c2cc(Br)ccc2n1,-0.595

# Source: PubChem BioAssay AID488969 (Vanderbilt High Throughput Screening Facility, 2010)
